Screen size: about 52,000 compounds; about 4,300 (8.3%) were called active. No stated cut-off is given here; in the data, active means survival mostly below about 52% (no sharp cut-off); inactive means mostly above about 56%. The list shows a part of the results.
test system: DeltatarO mutant; experiment: S. aureus survival, RN4220 and DeltatarO strains – OD600, teichoic acid synthesis inhibitors, primary screen (AID 463173); details: S. aureus RN4220 wild type/DeltatarO growth, OD600, 18 h, stronger effect = lower value, screened at 18.75 µg/mL (by protocol)

| SMILES | survival |
| --- | --- |
| CCCN(C(=O)Cn1ncc2c([nH]c3ccc(C)cc32)c1=O)c1ccccc1C | inactive: 80% |
| Cc1cc(-c2ccc(S(=O)(=O)Nc3ccc(Cl)cc3C)cc2)on1 | inactive: 94% |
| COc1cccc(N2CC(NC(=O)/C=C\c3ccc(OC)c(OC)c3)CC2=O)c1 (stereo not given) | inactive: 69% |
| CCOc1ccccc1NC(=O)c1c(NCc2sccc2C)sc2c1CCC(C)C2 (stereo not given) | inactive: 98% |
| CCC(C)NC(=O)CN1C(=O)COc2ccc(S(=O)(=O)N3CCOCC3)cc21 (stereo not given) | inactive: 82% |
| Cn1cc(S(=O)(=O)N2CCCCC2)cc1C(=O)Nc1cccc(C#N)c1 | inactive: 131% |
| CCOC(=O)c1cccc2c1N[C@@H](c1ccc(F)cc1)[C@H]1CC=C[C@@H]21 | active: 4% |
| Cc1ccc(CNC(=O)Cn2c(=O)n(Cc3ccc(F)cc3)c(=O)c3sc4ccccc4c32)cc1 | inactive: 92% |
| c1ccc(Cn2nnnc2CN2CCCC2)cc1 | inactive: 100% |
| CCCCN(CC)C(=O)c1cc2c(=O)n3cccc(C)c3nc2s1 | inactive: 54% |
| Cc1cc(C)cc(NC(=O)CCC(=O)N2CCSc3ccccc32)c1 | inactive: 54% |
| CCC(C)(C)C(=O)Nc1ccccc1C(C)C | inactive: 95% |
| Clc1ccc2nc(-c3ccccc3)c(NCc3ccco3)n2c1 | inactive: 97% |
| O=C(O)/C(=C\c1ccccc1)NC(=O)c1ccccc1 | inactive: 100% |
| CCCCSc1nnc2c(n1)OC(C)N(C(C)=O)c1ccccc1-2 (stereo not given) | inactive: 154% |
| CCc1ccccc1NC(=O)CC1Sc2ccc(C(F)(F)F)cc2NC1=O (stereo not given) | inactive: 82% |
| C/C=C/C(=O)N1CCCC(c2nc(-c3cccc(OC)c3)no2)C1 (stereo not given) | inactive: 79% |
| COc1ccc(CCNC(=O)C2COc3ccccc3C2)cc1OC (stereo not given) | inactive: 75% |
| COc1ccc(CCNC(=O)Cc2c(C)c3cc4c(C)coc4c(C)c3oc2=O)cc1 | inactive: 98% |
| Cn1c(Oc2ccc(Cl)cc2)nc2c1c(=O)n(Cc1ccc(F)cc1)c(=O)n2C | inactive: 48% |
| COc1ccc(C(=O)NC(c2ccc(Cl)cc2)c2cc(Cl)c3cccnc3c2O)cc1 (stereo not given) | inactive: 88% |
| Cc1oc2ccc(O)c(CN3CCOCC3)c2c1C(=O)Nc1cccc(Cl)c1C | inactive: 89% |
| CCNC(=O)Cn1nc(C)n2c(cc3c(OC)cccc32)c1=O | inactive: 98% |

| SMILES | survival |
| --- | --- |
| Cc1cc(C)n(C(C)CC(=O)NCc2ccc(Cl)cc2)n1 (stereo not given) | inactive: 69% |
| Cc1ccc(OCCCSc2nc(-c3ccc(C(C)(C)C)cc3)nc3cc(=O)[nH]n23)cc1C | inactive: 58% |
| Cc1ccc(OCC(=O)OCc2cc(=O)n3nc(C4CC4)sc3n2)cc1 | inactive: 86% |
| Cc1ccc(Nc2ccc(N3CCN(C(=O)c4ccc([N+](=O)[O-])cc4)CC3)nn2)cc1 | inactive: 85% |
| Cc1cc(C(c2nnnn2Cc2ccccc2)N2CCOCC2)c(C)n1-c1ccc2c(c1)OCO2 (stereo not given) | inactive: 78% |
| Cc1cccn2c(=O)c3cc(C(=O)Nc4ccc(Cl)c(Cl)c4)sc3nc12 | inactive: 62% |
| Cn1c(SCc2ccc(Br)cc2)nc2c([nH]c3ccccc32)c1=O | inactive: 119% |
| Cc1ccc(S(=O)(=O)NCCc2csc(-c3cccc(F)c3)n2)cc1 | inactive: 86% |
| O=C(c1ccc(Nc2nc3ccccc3n3nnnc23)cc1)N1CCN(c2cccc(C(F)(F)F)c2)CC1 | inactive: 57% |
| CCOC(=O)c1cccc(NS(=O)(=O)c2cc3c(cc2C)NC(=O)CO3)c1 | inactive: 84% |
| Cc1ccc(NC(=O)CN2C(=O)CC(C)Sc3ccccc32)c(C)c1 (stereo not given) | inactive: 81% |
| Cc1nc2ccn(Cc3ccco3)c(=O)c2cc1C(=O)NCc1ccc(F)cc1 | inactive: 79% |
| CCC(c1nnnn1Cc1ccccc1)N1CCN(c2cccc(Cl)c2)CC1 (stereo not given) | inactive: 89% |
| Cc1ccc(C)c(NS(=O)(=O)c2cc3c4c(c2)C(C)C(=O)N4CCC3)c1 (stereo not given) | inactive: 106% |
| CCCCNC(=O)Cc1ccc(Br)cc1 | inactive: 94% |
| CN(C)CCCNC1CS(=O)(=O)CC1O (stereo not given) | inactive: 101% |
| O=C(CC1N=C2c3ccccc3N=C(SCC(=O)Nc3ccc(F)cc3)N2C1=O)NCc1cccs1 (stereo not given) | inactive: 76% |
| COCCCNC(=O)C1CCN(c2cc(C)nc3c(-c4ccc(Cl)cc4)c(C)nn23)CC1 | inactive: 80% |
| CCN(CC)CCCNC(=O)c1ccc2c(Cl)c3c(nc2c1)CCCC3 | inactive: 105% |
| CCOC(=O)Cn1c(=O)n(-c2ccccc2OC)c2nc(-c3ccc(C(C)C)cc3)nc(C(N)=O)c21 | inactive: 86% |
| O=C1C(=Cc2ccc3c(c2)OCO3)C(=O)c2ccccc21 | inactive: 64% |
| CC(C)CC1Nc2ccc(C(=O)NCCCOC(C)C)cc2NC1=O (stereo not given) | inactive: 65% |
| COc1ccc(C(=O)NCCn2cc(SCC(=O)Nc3ccc4c(c3)OCCO4)c3ccccc32)cc1OC | inactive: 84% |

| SMILES | survival |
| --- | --- |
| CCOC(=O)c1c(Oc2ccc(C(C)=O)cc2)nnc(-c2ccccc2)c1-c1ccccc1 | inactive: 67% |
| CC(C)NC(=O)Cn1ccc2ccc(C#N)cc21 | inactive: 86% |
| Cn1c(SCC(=O)Nc2nc3ccccc3s2)ncc(C(=O)Nc2ccc(F)cc2)c1=O | inactive: 67% |
| COc1cccc(C(=O)Nc2cccc(C(=O)OCc3cc(=O)n4c(C)csc4n3)c2)c1 | inactive: 128% |
| NS(=O)(=O)c1ccc2nc(NC(=O)COc3ccc(Cl)cc3Cl)sc2c1 | inactive: 89% |
| COCCNC(=O)c1ccc2c(c1)N=C(C)c1cc(C)ccc1S2 | inactive: 69% |
| CCOC(=O)c1c(-c2cccs2)csc1NC(=O)C(F)(F)F | inactive: 70% |
| Cc1c(C(=O)NC(C)c2ccccc2)sc2nc3n(c(=O)c12)CCCC3 (stereo not given) | inactive: 87% |
| CCOC(=O)COc1ccc(C)cc1C(=O)c1ccn2nc(-c3ccc(F)cc3)cc2n1 | inactive: 69% |
| CC1CCN(C(=O)c2cccc(NC(=O)c3nsc4ccccc34)c2)CC1 | inactive: 92% |
| COc1ccc2c(CNCc3cccs3)c(C(=O)O)n(Cc3ccccc3F)c2c1 | inactive: 96% |
| O=C(NCc1ccccc1)c1ccc2oc(=O)n(Cc3ccccc3)c2c1 | inactive: 72% |
| C=CCc1cccc2cc(NC(C)=O)c(=O)oc12 | inactive: 76% |
| CCCN1C2=C(C(=O)CCC2)C(c2ccc(F)cc2)C2=C1c1ccccc1C2=O (stereo not given) | inactive: 89% |
| COc1ccc(CC(=O)N2CCc3cc(OC)c(OC)cc3C2COc2ccc(F)cc2)cc1OC (stereo not given) | inactive: 75% |
| CN(C)c1ccc(NC(=O)CSC2=Nc3ccccc3C3=NC(CCC(=O)NCc4cccs4)C(=O)N23)cc1 (stereo not given) | inactive: 75% |
| COc1ccccc1NC(=O)Cn1c(=O)c(CNc2ccc(C)cc2)cc2cc3c(cc21)OCCO3 | inactive: 58% |
| Cc1cccc(N2C(=O)CSC23C(=O)N(CC(=O)NCc2ccccc2Cl)c2ccccc23)c1 (stereo not given) | inactive: 116% |
| COc1ccc(CCNC(=O)C(=O)NCC(c2ccco2)S(=O)(=O)c2ccccc2)cc1 (stereo not given) | inactive: 82% |
| COCCCn1c(SCC(=O)N(Cc2ccco2)c2nccs2)nc2sc3c(c2c1=O)CCC3 | inactive: 83% |
| COc1ccc(-c2nnc3n2N(C(C)=O)C(c2ccc(Cl)c(Cl)c2)=C(C(C)=O)S3)cc1 | active: 20% |
| COc1ccc(N2CC(C(=O)NCc3nnnn3-c3ccc(C)c(C)c3)CC2=O)cc1 (stereo not given) | inactive: 69% |
| Cc1cccc(NC(=O)c2ccc3c(c2)CCN3S(=O)(=O)c2ccccc2)c1C | active: 38% |

| SMILES | survival |
| --- | --- |
| Cc1ccc(NC(=O)Nc2sc3nc4n(c(=O)c3c2C)CCC(C)CC4)c(Cl)c1 (stereo not given) | inactive: 110% |
| COc1cccc(OC)c1C(=O)Nc1nc2c(s1)CCc1ccccc1-2 | inactive: 60% |
| Cc1nc2c(c(C)c1CCC(=O)NCc1ccc(Cl)cc1)c(=O)n(C)c(=O)n2C | inactive: 91% |
| CC(CNC(=O)CN1C(=O)c2cccnc2Oc2ccc(Cl)cc21)c1ccccc1 (stereo not given) | inactive: 90% |
| COC(=O)c1ccc(NC(=O)N2CCN(Cc3cc(=O)n4nc(-c5ccc(C)cc5)sc4n3)CC2)cc1 | inactive: 89% |
| O=C1C2C3C=CC(C3)C2C(=O)N1c1ccc(Cl)cc1 (stereo not given) | inactive: 70% |
| O=C(NC12CC3CC(CC(C3)C1)C2)N1CCC(O)(c2ccc3c(c2)OCO3)CC1 | inactive: 81% |
| CC1SC2(C(=O)Nc3ccccc32)N(c2ccccc2)C1=O (stereo not given) | inactive: 94% |
| COc1ccc2cc3cc(C(=O)N4CCN(c5ccccc5F)CC4)oc3nc2c1 | inactive: 53% |
| O=c1[nH]c(=O)n(C2CCCCC2)c(O)c1C1=Nc2ccccc2SC(c2ccc(Cl)cc2)C1 (stereo not given) | inactive: 50% |
| COc1cccc(C2=CC(c3cc(Br)ccc3F)n3nnnc3N2)c1 (stereo not given) | active: -2% |
| O=C(CCc1ccccc1)NCc1ccc2c(c1)OCO2 | inactive: 57% |
| CCCOc1ccc(C2CC(=O)Nc3c2c(C)nn3-c2nncc(-c3cccc(OC)c3)n2)cc1OC (stereo not given) | inactive: 46% |
| CCCS(=O)(=O)N1CC(=O)N(c2ccc(C)cc2)C(C)(C(=O)NC2CCCCCC2)C1 (stereo not given) | inactive: 75% |
| O=C(NCCc1ccccc1Cl)c1ccc2c(=O)n(-c3ccccc3)c(=O)[nH]c2c1 | inactive: 85% |
| CCOc1ccccc1CN1CCc2nc(Nc3ccc4c(c3)OCCO4)ncc2C1 | inactive: 62% |
| O=C(O)c1cccc(Nc2nc(-c3ccccn3)cs2)c1 | inactive: 80% |
| COCC(=O)NCc1ccc2c(c1)OCO2 | inactive: 104% |
| O=C(NCCN1CCOCC1)c1ccc2c(c1)OCCO2 | inactive: 93% |
| Cc1ccc(/C=C/c2onc(C)c2S(=O)(=O)N2CCC(C(=O)N3CCN(c4ccccc4F)CC3)CC2)cc1 | inactive: 116% |
| Cc1cccc(-n2c(C)nc3cc(C(=O)NCCC4=CCCCC4)ccc32)c1 | inactive: 71% |
